Data taken from the supplement of paper PMC3334620.
In all, about 33,000 sequences were measured (“E-score (-0.5 to 0.5)”: median about -0.013, highest 2% from about 0.3 on). The list shows a part of the results.

These sequences were tested against T1, Msn1 (UniProt P22148) (assay: PBM E-score (8-mer binding enrichment) (E-score (-0.5 to 0.5)); higher = stronger / more preferred TF binding; most listed sequences are background and not binding sites). Conditions: protein concentration: 200 nM; construct: GST-full length.
T1 sequence: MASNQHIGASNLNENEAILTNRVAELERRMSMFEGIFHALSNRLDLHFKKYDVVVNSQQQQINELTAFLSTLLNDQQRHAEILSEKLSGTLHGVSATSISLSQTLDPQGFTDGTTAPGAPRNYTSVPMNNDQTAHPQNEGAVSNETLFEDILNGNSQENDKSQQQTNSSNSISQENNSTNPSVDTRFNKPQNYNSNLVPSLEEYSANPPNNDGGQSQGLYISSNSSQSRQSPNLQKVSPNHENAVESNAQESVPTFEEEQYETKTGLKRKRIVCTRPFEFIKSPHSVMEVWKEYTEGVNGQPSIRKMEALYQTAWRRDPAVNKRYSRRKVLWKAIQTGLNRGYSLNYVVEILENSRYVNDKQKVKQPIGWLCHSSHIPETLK
How it was run: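 E-scores (a modified Wilcoxon-Mann-Whitney statistic) were assigned by the Universal PBM Analysis Suite to every ungapped eight-base word pooled with its reverse complement. The input came from universal all-10-mer Agilent arrays made double-stranded by primer extension and probed with GST-tagged yeast transcription factors at about 100-200 nM. Fluorescent anti-GST detected bound protein, and masliner normalised the scans.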

| Sequence | PBM E-score |
| --- | --- |
| CCTGCAGG | -0.12 |
| CACCCCTC | -0.305 |
| AGAAGAGG | -0.147 |
| ATAACTAC | 0.208 |
| CGACCTAA | 0.0905 |
| CGAGTCTC | -0.0316 |
| GTTTATAA | 0.153 |
| AATTTAGC | 0.0199 |
| AAAGTTCT | 0.0772 |
| ACGGCGAT | 0.0278 |
| ACGCGACG | 0.0188 |
| CACTACAA | 0.0813 |
| CTCCCCGA | 0.0019 |
| AAACTTCA | 0.12 |
| ACATAAGT | 0.165 |
| GATTAAGC | -0.0418 |
| CAAATCTG | 0.097 |
| GCACTCCC | -0.189 |
| ATCGAGAT | 0.0248 |
| TCGGTCAA | 0.0641 |
| CGTCGCTA | -0.0936 |
| CGCCTTGA | -0.214 |

| Sequence | PBM E-score |
| --- | --- |
| AAAGACCG | 0.0194 |
| CCGACCTA | -0.0873 |
| GAAACTGA | -0.0421 |
| ATAATTCA | 0.119 |
| GAAGGCGC | -0.199 |
| GAGCCTAA | -0.107 |
| CGTTAACG | -0.0345 |
| TGCCGTAA | 0.0671 |
| CAAGAACC | 0.117 |
| CCGTTCCA | -0.0998 |
| TCTGACAA | 0.198 |
| CGCAACTA | -0.0727 |
| AGCTATTA | 0.0313 |
| CACTATGG | -0.172 |
| CAATCCAG | 0.0879 |
| CTTTACGC | 0.0302 |
| CAAAGCGG | 0.0733 |
| AGCGTCAT | -0.0807 |
| AGAGTGTG | -0.204 |
| ACAGTTAG | 0.0892 |
| GACTCGTA | -0.159 |
| ACACATAG | 0.0311 |

| Sequence | PBM E-score |
| --- | --- |
| GAAAAAGC | 0.0165 |
| CAACTGAC | -0.0694 |
| ACGAAAAG | 0.106 |
| GCTCCACA | -0.208 |
| GCAATAGA | -0.181 |
| AACACGTT | -0.139 |
| AAGAAATA | 0.0701 |
| ATGCTATA | -0.08 |
| CTCCTTTA | 0.00412 |
| ATCACAAC | 0.0882 |
| GTACATAC | 0.217 |
| AGCGCCGA | 0.102 |
| AGAGCCTA | -0.138 |
| TCTGCAAA | -0.129 |
| ATTGCATC | -0.148 |
| ATGAGTAA | 0.0231 |
| AGAAAGTG | -0.0278 |
| CTTTTCCC | -0.0566 |
| AAAGTAAA | -0.00172 |
| AAGAAGAT | -0.0233 |
| CGGTGAAA | 0.202 |
| ATACAATG | 0.153 |

| Sequence | PBM E-score |
| --- | --- |
| GGGGCACC | -0.345 |
| AACATGGC | -0.0873 |
| AATGGGAA | -0.049 |
| CCTTGCTA | 0.0249 |
| GAGCCCCC | -0.427 |
| CAAGCGGA | -0.034 |
| ATACTTCA | 0.0733 |
| CAATAAGA | 0.0742 |
| ATCCCCGA | -0.0379 |
| ACGGCTCT | -0.0827 |
| ATCTTAAA | 0.16 |
| TCGCCAAA | -0.077 |
| ATTTGCTG | 0.0441 |
| CCTCATTA | 0.00599 |
| AATATCAC | 0.133 |
| CAGCGACC | -0.133 |
| AAGTCAAC | -0.084 |
| AGTTCTCG | 0.015 |
| AGCTGAGC | -0.211 |
| CTGCGATC | -0.159 |
